This note sets out measurements from the RNAGym collection of RNA variant scans (doi:10.1093/nar/gkz1192).

The source gives no read counts; variants with many changes may rest on few reads.

The chains are these.
B1: CPEB3 Ribozyme (parent)
chain: UAACAGGGGGCCACAGCAGAAGCGUUCACGUCGCAGCCCCUGUCAGAUUCUGGUGAAUCUGCGAAUUCUGCUGUAUAUCUC

The variants in this data set derive from B1. Briefly: self-cleavage, relative activity (ratio to wild type); higher = more cleavage; in vitro, sequencing. In a few lines: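 After error-prone PCR and barcoding, CPEB3 ribozyme mutant libraries were transcribed with T7 RNA polymerase at 37°C for 5 hours, then given 15 min with DNase I before an EDTA stop, and they cleaved during both steps. Reverse transcription with template switching preceded Illumina sequencing. Relative activity divides a variant's cleaved/total read fraction by the unmutated ribozyme's. At least 5 reads were required per variant, and three batches were averaged.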
As to A35U A47U U72A A75U, the self-cleavage is 0.08. Then A35U U43C U76C, with 0.2. Then A35U U58A A65U, with 0.1; and G36A U41C U80G, with 0.62; and A35U U58C G70A, with 0.15. Take A35G U51A A64U: the self-cleavage was 1.17. Next, A35U A45U U60A A64U U67C: 0.13; A35G U66C U67A: 0.81. Next, A35U U69C G70A: 0.18. Next, G36A A56C A64G: 0.15; A35G G61A A64G: 1.08; G36A A47G U72C U76C: 0.41. As to A35G U43C U48C G52U A56G, the self-cleavage came to 0.93. Then A35G U43C A45U U78C, with 0.6; and A35G U51A U66C U78C, with 1.14; and A35G U41C U69C U72A, with 0.53. Then A35U G36A U43C C62A U69C U78A, with 0.09. Then A35U A57G U76C, with 0.5. Consider A35U G42C U69A A77G, for which the self-cleavage was 0.06. Then A35G U41C U49C U54C G63A C68G U78C, with 0.18. Then A35U C40U U51C U72C U80C, with 0.31.

C37A A56G A64G A75G: the self-cleavage came out at 0.09. Consider A35G U41A A57U C71U, for which the self-cleavage is 0.11.

As to A35G U51A U69C, the self-cleavage came to 1.46. Next, A35G U41C U72A U78C: 1.23; A35U A56G G61U: 0.17. Take A35G U43C A56G U58A U60C: the self-cleavage is 0.18. On to G36U U60G U80A, for which the self-cleavage came to 0.11.

Take C37A C44U A56G: the self-cleavage was determined as 0.16. For A35G U48C U51A U80C, the self-cleavage is 1.27. Then A35G U41C U51C A56G U72C, with 1.26; and A35U C62G U69A, with 0.11; and A35U U43C U51A U58A, with 0.12. Then A35G U41A A57G U58C, with 0.09. Then A35G C50U A57U U69A, with 0.45; and G36A U60C G61C A77G, with 0.08; and A35G U58A U74C, with 1.1. For A35G G53A A75G U80C, the self-cleavage stood at 1.31. Next, A35G U41C U66G U80C: 1.2; A35U A56G A57G U72A: 0.19; A35G U41A U48C: 0.2. Then A35U A65G U72A, with 0.2; and A35G U54C A56U U67C G70C U72C, with 0.51; and A35U U60C U76C, with 0.13. Then A35G U43A A45U A47G, with 1.19; and A35G U43A A45U U76C, with 1.27. As to G36A U41A A45C U49A U69C U72C, the self-cleavage was 0.14.

For A35G U54C C62A A77U, the self-cleavage was 0.18.

Take A35G U48C U60C G73A: the self-cleavage was 0.3. Then A35U A45G U54A, with 0.15. On to A35U U43A A57G A64G, for which the self-cleavage came out at 0.27.

For the variant A35G U60A U74C, the self-cleavage stood at 1.26. Then A35G U48A U76C, with 1.28. Next, A35U U41C U54C: 0.33; A35G U49C A77U: 1.01; A35G U69A U76C: 1.1.

Turning to A35G U51C A65U U72G, the self-cleavage is 0.99.

In the case of A35G U41A U48C C62U G70U U80G, the self-cleavage was found to be 0.06. Then A35U U43C C62U A65G A77U, with 0.1; and A35G U72G G73A, with 1.3. As for A35G U41C A47U A65G U72C, the self-cleavage was 0.32. Next, A35U C39A U43A G61A: 0.16; A35U A64U U72A: 0.08; G36U U48C U60C G63U U80C: 0.11. Turning to A35U U58C U69C C81G, the self-cleavage came out at 0.1. Then C37A A65U U69A A77C U80A, with 0.21; and G36A U48C U54C A56U, with 0.07; and G36C C40U U49A U74A U80C, with 0.11. Take A35G U41A A57G U80C: the self-cleavage worked out at 0.17. Then A35G G42U U58A, with 0.13. With A35G U51A A65U U67A U76A, the self-cleavage came out at 0.91. Then A35U U41C U76C, with 0.46; and A35U U49C U54C U80C, with 0.16; and A35U A57G U78C, with 0.53. Regarding A35G U60G C71A, the self-cleavage was 0.4. Next, G36C A45U G61C A65G: 0.09; A35U U41A A45G U48C U60C U78C: 0.15; G36A C40U A56G U74C U76C: 0.12.

Regarding C37A C39A A56G U69C C71U U72C U76C, the self-cleavage was 0.04. With A35U U41G A56G U67C, the self-cleavage came out at 0.11. Then A35U G55U U69A, with 0.09; and A35U U43C A47G U54C, with 0.2. As for A35G U43A C44A U76C A77G, the self-cleavage turned out to be 1.73. Then A35U U43C U51G U58A A64G U80C, with 0.13; and A35G U41G G73A, with 0.33. A35G U74A C81A: the self-cleavage was 1.3. Then A35G U48C A75G U78A, with 1.25; and A35U C37U G53A U54A, with 0.19. Turning to A35U A57G C62U U72A, the self-cleavage came to 0.08. Then A35G U41A C62U, with 0.15; and A35U U66A A75U, with 0.15; and A35U U43C A57G A77G, with 0.14.

In the case of A35U U67A U78C, the self-cleavage came out at 0.17.

As for G36C A75U C81U, the self-cleavage was 0.06. Next, A35G C44U U48A U80C: 0.39; A35G U41A U67G: 0.24.

In the case of A35U U66C U78C, the self-cleavage amounted to 0.13. Next, C37A C39A U69C U72A: 0.12; A35G U48C U78C: 1.21; G36C U48A U49C: 0.16. Then A35G U67C U72A, with 0.46. Then A35U A45U A77G U80A, with 0.12; and A35G U41A U54A, with 0.58.

A35G G46C A56G: the self-cleavage was found to be 0.38. Next, A35U U54C U72C: 0.55; A35G U54G A57U U72C: 0.84.

A35G U49G G52U A64G: the self-cleavage was 1.25.

In the case of A35U A47G U49A, the self-cleavage was 0.1. Next, A35U C37G U80C: 0.33; A35U A45U U78A: 0.14.

For A35U C39U U51A U58C U74C, the self-cleavage came out at 0.24. Then A35U U41A U78C, with 0.05; and G36A U41C A45G A56G, with 0.09.

Consider G36A A45G U49A A56U, for which the self-cleavage stood at 0.21.

A35G U43C G52A A57U: the self-cleavage came to 0.71. Then A35G U49A G70A, with 0.76; and A35G U58C U67C, with 0.51. For A35U C39U U80C, the self-cleavage was found to be 0.35. Then G36U U41C U58C U74C, with 0.27. Next, A35G U54G U60G A64U U69A: 0.51; A35G U51A A57G U60C: 0.76; A35U U43C G61A A65G: 0.08. Next, G36A C39A A57C U72A U76A A77G: 0.06. As to A35U A45U A65G U69C U72A, the self-cleavage is 0.11. In the case of A35G U43C U54C U60G U67C U78C, the self-cleavage worked out at 0.14. Next, A35U G36C U69G: 0.09. Turning to A35U U49C A57G U78A, the self-cleavage is 0.11.

As to A35U U51G U58C, the self-cleavage is 0.37. Then A35U A56U U58C U80A, with 0.13; and A35G U41C A57G U69C, with 1.22.

On to A35U U49A A64G U76A, for which the self-cleavage was determined as 0.15. Next, A35G U41C U54C A64G: 1.39; A35U U48A U60C C79U: 0.21.

Regarding A35U U54C U60C U78C, the self-cleavage came out at 0.12. Next, A35G U74C U78A: 1.27.

On to A35G G46A C62U U72A U80C, for which the self-cleavage was 0.16. Then A35G U51A C62U, with 0.3; and A35U U60G U72C, with 0.13. As to A35U G55C A56G, the self-cleavage was determined as 0.41. Then A35G C59U A77U U80A, with 1.3; and A35U U41A C71G, with 0.13.

Regarding G36A U49A A56U, the self-cleavage was found to be 0.27. Next, G36A A64U U67A: 0.18; A35G U49C A57U U67C: 0.14; A35G G36C G55U U67C A77U U78G: 0.07. G36U A56G U58A: the self-cleavage was 0.14. Next, A35U A45G A47G U69C U76A: 0.16; A35G U41A U66A U72C U80C: 0.09.

For the variant A35U A64U U66A U69C U72A, the self-cleavage is 0.05. As for A35G U48C U60C U80G, the self-cleavage worked out at 0.3.

A35U A47G U69C: the self-cleavage was 0.29. Then A35G U60C U72G, with 0.92. A35U A45U G55A U58C: the self-cleavage stood at 0.08. Turning to A35U A64G U69C, the self-cleavage turned out to be 0.17.

Consider A35U C39G U51A A64G, for which the self-cleavage is 0.07. Then A35U U72C C79A, with 1.02. As for A35G U43C A64U, the self-cleavage came to 0.2. Then A35U A45G U48A, with 0.09; and A35G U41A A56G U60G, with 0.09; and A35G U41C U51C, with 1.2. Then G36A U41C U67A U72C A77G, with 0.2; and G36U U43C G61C A65G, with 0.12. Next, A35G U51C A64G: 1.28; A35G G42A U43C U54C A56G A65U: 0.17.

Turning to A35G U60C U69C, the self-cleavage was determined as 0.74. Next, A35U C40A U69C: 0.1; A35U U41C A56U U69A: 0.13.
